According to ChEMBL document CHEMBL4888484, “Replenishing the malaria drug discovery pipeline: Screening and hit evaluation of the MMV Hit Generation Library 1 (HGL1) against asexual blood stage Plasmodium falciparum ,using a nano luciferase reporter read-out” (2022):
About 540 (0.36%) of roughly 150,000 compounds showed an effect of 50% or more. Some of the results follow.

system: Plasmodium falciparum; assay: Primary screen in NF54 nanoGlo assay, in single point, at 2uM, 72h; a lower Z score goes with more inhibition; type: functional, Erythrocyte; conditions: timepoint 72 hour

Structure (SMILES) | % Inhibition [%] | Z score
CCC1(CC)C[C@@H]1C(=O)N1CCC(n2cc(C3CCCCC3)nn2)CC1 | -10 | 1.89
C=CCN1CC[C@H](Oc2ccc(C#N)cc2OC)C1=O | -14 | 1.23
C[C@@H](c1ccccc1F)N1CCN(C(=O)CCn2cncn2)CC1 | -16 | 1.68
COc1ccc(CCOC(=O)Nc2ccccc2)cc1OC | 6 | -0.69
COc1ccc2cc(S(=O)(=O)NC3CC(C)(C)NC(C)(C)C3)ccc2c1 | -8 | 1.59
CCc1ccccc1OC1CN(C(=O)CCn2ccc(C)n2)C1 | -17 | 2.31
COC(=O)C[C@H](c1c(O)ccc2nsnc12)C1CCCCC1 | 3 | -0.4
CN1CCN(c2cc(N3CCN(C(=O)Cc4ccc(F)cc4)CC3)ncn2)CC1 | -4 | 0.59
Cc1ccc(C(=O)N2CCC[C@H]2c2nc(CCOCC3CCOCC3)no2)s1 | -5 | 0.71
CC1CCN(C(=O)c2cc(C3CC3)on2)C(c2ccco2)C1 (stereo unspecified) | -2 | 0.34
Cc1occc1C(=O)N[C@@H](C)c1cnn(C)c1C | 7 | -0.91
CCO[C@H]1COC[C@@H]1NC(=O)COc1ccc(Cl)cc1Cl | 2 | -0.24
CCC(=O)N1CCC[C@@](NC2CCCCC2)(c2nnnn2C2CCCC2)C1 | -9 | 1.18
Cc1ccc(C(=O)Nc2ccc(NCc3ccccn3)cc2)c(O)c1 | -9 | 1.4
Cc1cc(C)c2c(c1)C1(NC(Cc3c[nH]c4ccccc34)[C@H]3C(=O)N(c4ccccc4)C(=O)[C@H]31)C(=O)N2 (stereo partly specified) | 28 | -3.14
Cn1cnnc1C1CCN(Cc2cc(-c3ccccc3)ccc2OCC(=O)O)CC1 | 5 | -0.57
CC(C)c1nc([C@H]2CN(C(=O)Cc3cccnc3)CC23CCOCC3)no1 | -7 | 0.97
CC[C@@](C)(C(=O)NC1CCCC1)N(Cc1ccco1)C(=O)c1ccc2c(c1)OCO2 | 40 | -5.15
Cc1ccc(NC(=O)NCCC2CCN(S(=O)(=O)c3ccccc3)CC2)cc1C | 4 | -0.59
Cc1cc(S(=O)(=O)[C@H]2CS(=O)(=O)C[C@@H]2NC2CCCCCC2)ccc1F | -12 | 1.58
CCOC[C@H](C)OC(=O)c1cn(C)nc1C | -19 | 2.74
CCCCCn1cc(C2CCN(S(=O)(=O)c3cccc(C(F)(F)F)c3)CC2)c2ccccc21 | 2 | -0.28
Cc1cc(N2CC[C@H](OCCN3CCCCC3)C2)ncn1 | -6 | 0.8
O[C@H]1[C@H](n2cc(-c3cccc(F)c3)nn2)c2ccccc2C12CCNCC2 | 3 | -0.59
CN1CCN(Cc2nnnn2C(C)(C)C)CCC1=O | -9 | 0.74
C[C@]1(C(=O)N2CCCc3occc3C2)CCC(=O)NC1 | -12 | 1.58
CNc1nc(NCC(C)(C)OC)ncc1Br | -13 | 1.49

Structure (SMILES) | % Inhibition [%] | Z score
COc1ccc([C@@H](NCC(=O)N2CCN(Cc3ccc4c(c3)OCO4)CC2)c2ccccc2)cc1 | -10 | 1.1
Cc1nnsc1C(=O)NC[C@H](O)c1ccc(-c2ccsc2)cc1 | 3 | -0.38
NC(=O)N1CCCN(C(=O)c2cc(C3CC3)on2)CC1 | 0 | 0.01
COc1cc(-c2ncc(C(=O)NC[C@H]3CCCO3)c(N3CCC(C)CC3)n2)cc(OC)c1OC | -7 | 1.32
COc1ccc(NC(=O)C2=Cc3cc(Cl)cc(OC)c3OC=C2)cc1 | 39 | -5.21
Cc1nc2ccc(F)cc2c(=O)n1CC(=O)Nc1cccc(C(=O)c2nccn2C)c1 | -14 | 1.7
CCn1nccc1-c1csc(S(=O)(=O)Nc2ccc(OC)c(F)c2)c1 | -11 | 1.39
CC(=O)N1CCCN(C(=O)CCc2ccccc2F)CC1 | -7 | 1.02
CS(=O)(=O)N1C[C@H]2CC[C@@H](C1)N(C(=O)c1ccc(Cl)s1)C2 | -11 | 1.33
COCc1noc(CN[C@@H](C)CCn2ccnc2C)n1 | -3 | 0.63
CCN(CCN(C)C)C(=O)c1noc2c1CCCC2 | -3 | 0.54
CCOc1cc2c(cc1CN(C)Cc1noc(C)n1)CCC2 | -16 | 2.01
c1csc([C@H]2CCCN(c3nccc4occc34)C2)n1 | -1 | 0.22
Cc1cc(NC(=O)C(C)N2CCOC(c3ccc(F)cc3)C2)no1 (stereo unspecified) | 13 | -1.74
COCC[C@]1(c2noc(C3CC3)n2)CCCN(S(=O)(=O)c2ccc3c(c2)CCCC3)C1 | -4 | 0.66
CCN(C1CCCCC1)S(=O)(=O)c1ccc(N2CCCCS2(=O)=O)cc1 | -13 | 1.32
CCCOc1ccc(CN2C[C@H]3CCN(C)[C@H]3C2)cc1Cl | -15 | 1.4
O=C(CCN1CCOCC1)N1CCC2(CCCC2)C1 | -7 | 1.31
Cc1nnc(Cn2cnc3c(C)c(C)ccc3c2=O)[nH]1 | -7 | 1.44
COc1cc(C(=O)Nc2ccc(Nc3ccc(C)nn3)cc2)cc(OC)c1OC | 13 | -2.29
CC(=O)OCC(=O)Nc1cc(S(C)(=O)=O)ccc1Cl | -7 | 0.81
COc1ccc(S(=O)(=O)N[C@@H](Cn2nccn2)C(C)C)cc1Cl | -1 | 0.2
C[C@@H](CCn1ccnc1-c1cc(Cl)ccc1Cl)N1CCN(C)CC1 | -3 | 0.66
CCc1ccc(C(=O)N2C[C@@H](NC(C)=O)[C@H](c3nccn3C)C2)o1 | -2 | 0.28
CC(=O)NCc1cc2n(n1)CCN(c1ncc(F)c(N3CCCC3)n1)C2 | -7 | 1.24
COCc1ncc(C)n1CCNS(=O)(=O)Cc1ccccc1 | 11 | -1.32
